Assay results reported in patent US20160271188A1, “PROBIOTIC AND PREBIOTIC COMPOSITIONS, AND METHODS OF USE THEREOF FOR TREATMENT OF GASTROINTESTINAL DISORDERS” (Epiva Biosciences, Inc., priority 2014, published 2016).

System: C57BL/6 mice
Conditions: mouse, in vivo

Compound: CCN1CCN(c2cc3c(cc2F)c(=O)c(C(=O)O)cn3C2CC2)CC1 [enrofloxacin, reference compound]
- serum endotoxin levels after antibiotic treatment, later time: return to baseline by day 14
